According to the BET-seq Pho4 binding data (Le et al. 2018):
Some of the results follow. The energies were worked out here from pooled read counts, against the library average; single values are noisy.

molecular target: T1, Pho4 (S. cerevisiae) (UniProt P07270); test: relative binding free energy (BET-seq); higher = weaker binding; conditions: reference: library average
T1 sequence: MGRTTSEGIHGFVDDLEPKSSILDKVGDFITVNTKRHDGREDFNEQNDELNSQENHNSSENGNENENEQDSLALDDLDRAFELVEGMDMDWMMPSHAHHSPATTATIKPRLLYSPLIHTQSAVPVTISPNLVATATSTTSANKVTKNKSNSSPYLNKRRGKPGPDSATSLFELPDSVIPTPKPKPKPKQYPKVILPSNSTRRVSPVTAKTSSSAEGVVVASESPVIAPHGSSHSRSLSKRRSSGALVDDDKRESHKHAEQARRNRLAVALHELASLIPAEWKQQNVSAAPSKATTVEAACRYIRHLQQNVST

Sequence	relative binding free energy
ATAGACACGTGCTGGG	0.126 kJ/mol
TTCATCACGTGATTGT	1.97 kJ/mol
GTGGACACGTGGAATG	0.628 kJ/mol
TTATCCACGTGCGTGT	-0.46 kJ/mol
ACTGACACGTGGGTGT	-0.335 kJ/mol
TCGCTCACGTGGGGCG	0.0837 kJ/mol
CTAATCACGTGGGATG	0.335 kJ/mol
CGTTACACGTGTGCTT	0.669 kJ/mol
ATTATCACGTGGCATG	-0.126 kJ/mol
AGAGACACGTGGTGGA	-0.251 kJ/mol
TTTTACACGTGTTATC	0.46 kJ/mol
TGGTCCACGTGTCTGG	0.209 kJ/mol
ATTGTCACGTGCAAGT	0.628 kJ/mol
ATGTGCACGTGATTGT	0.92 kJ/mol
CATGGCACGTGTGTGG	-0.251 kJ/mol
TAGAGCACGTGGTTGA	-0.46 kJ/mol
CTAGGCACGTGAATGG	0.879 kJ/mol
TAAGTCACGTGATCGT	0.837 kJ/mol
GGTTACACGTGGTGAG	0.418 kJ/mol
TGGTGCACGTGTAGTA	0 kJ/mol
GTGCTCACGTGGAGAA	1.59 kJ/mol
TTCAGCACGTGATGTG	0 kJ/mol
GTTAGCACGTGGGGCT	-1.46 kJ/mol
CGAGACACGTGGTGGT	-0.377 kJ/mol
GGGTGCACGTGAGGAA	1.17 kJ/mol
AGTACCACGTGGTTGT	-0.753 kJ/mol

Sequence	relative binding free energy
GCGGGCACGTGTGGAC	0.0837 kJ/mol
TATTACACGTGTAGTA	0.167 kJ/mol
GGTTACACGTGAATTT	1.38 kJ/mol
AGGGGCACGTGGCGGT	-1.13 kJ/mol
AAACTCACGTGGGGGT	0.753 kJ/mol
GGGTACACGTGGAACG	0.753 kJ/mol
ATGTGCACGTGGCGGG	-0.628 kJ/mol
GCTTTCACGTGCGGTA	1.13 kJ/mol
GGTGGCACGTGTAGGT	0 kJ/mol
GTTGGCACGTGAACTG	0.502 kJ/mol
GCTTTCACGTGAGGTT	1.84 kJ/mol
CGGAGCACGTGAATGG	0.418 kJ/mol
CAGGTCACGTGCATGT	0.0837 kJ/mol
GGGTGCACGTGTAGTC	0.418 kJ/mol
TTATGCACGTGATTAG	0.502 kJ/mol
TGAGCCACGTGGGTTC	-0.209 kJ/mol
TTGACCACGTGTTATT	0.126 kJ/mol
CTGTGCACGTGTCTTG	0.251 kJ/mol
TCGGTCACGTGATTGT	0.962 kJ/mol
GGATACACGTGCGGTG	0.377 kJ/mol
ATTAGCACGTGGGTAA	-1.26 kJ/mol
GGAAACACGTGGGGTG	-0.46 kJ/mol
TTTCGCACGTGCGAGG	-0.293 kJ/mol
ATCTACACGTGGAGGG	0.293 kJ/mol
GTCAACACGTGGTTTG	0.711 kJ/mol
GTCAGCACGTGGTTTT	-0.711 kJ/mol

Sequence	relative binding free energy
TGGCTCACGTGTTGTT	0.586 kJ/mol
ATAATCACGTGTTGTG	0.0837 kJ/mol
GTTGTCACGTGAGGGC	1.3 kJ/mol
TGGGTCACGTGATAAA	1.46 kJ/mol
TTAATCACGTGGGTCG	-0.293 kJ/mol
CGGATCACGTGGGTTA	-0.251 kJ/mol
AAGCTCACGTGAGTGG	1.09 kJ/mol
TGGACCACGTGGTCGG	-0.251 kJ/mol
CTGATCACGTGGGTGC	0.335 kJ/mol
GTTGTCACGTGTAGTG	1.05 kJ/mol
AATGGCACGTGTGGTC	0.167 kJ/mol
AGTGCCACGTGGTTAT	-1.13 kJ/mol
TAGGCCACGTGAATTT	1.3 kJ/mol
ACGGACACGTGGGCGG	-0.711 kJ/mol
TGCATCACGTGTAGGA	0.962 kJ/mol
TTTCTCACGTGTGAGA	1.51 kJ/mol
CATTACACGTGAGTGG	0.46 kJ/mol
TTTATCACGTGTGGGC	0.879 kJ/mol
CTGGTCACGTGATTTT	0.795 kJ/mol
TCTTGCACGTGAGTAT	0.879 kJ/mol
GTTATCACGTGGGTTC	0.251 kJ/mol
GGTTCCACGTGTTTGT	0.753 kJ/mol
TACGGCACGTGCGTGT	-0.879 kJ/mol
GTATGCACGTGTGTTT	0.418 kJ/mol
AGTATCACGTGTCGAG	0.962 kJ/mol
CTAGGCACGTGGAGAG	-0.669 kJ/mol

Sequence	relative binding free energy
TGAAACACGTGTATGA	0.46 kJ/mol
GTGTACACGTGATGAT	0.167 kJ/mol
TTGTGCACGTGTTCAT	-0.0837 kJ/mol
TCGTTCACGTGGCGTA	1 kJ/mol
GTTGGCACGTGTCGAG	-0.167 kJ/mol
TTGCTCACGTGTAAAG	1 kJ/mol
GTAGTCACGTGTTTAC	0.962 kJ/mol
TCGTTCACGTGATTTG	1.84 kJ/mol
AGTTGCACGTGGTAGT	-0.46 kJ/mol
AGTATCACGTGCCGGG	0.46 kJ/mol
CCGTGCACGTGGGGTT	-0.92 kJ/mol
TAATGCACGTGAATTG	0.92 kJ/mol
GTGGTCACGTGTAATT	1.42 kJ/mol
TTTTACACGTGTATCT	0.0418 kJ/mol
TTGGACACGTGATGAT	0.753 kJ/mol
AGGGCCACGTGTGGTG	-0.126 kJ/mol
CATGCCACGTGGGTGG	-0.502 kJ/mol
CGTTGCACGTGATAGA	0.167 kJ/mol
TAGTACACGTGAGTCG	1.72 kJ/mol
AGTATCACGTGGTGGC	0.126 kJ/mol
TATAGCACGTGGAGCT	0.335 kJ/mol
TGGGTCACGTGCCGGG	0.126 kJ/mol
TGTGGCACGTGTACCG	-0.753 kJ/mol
TTGCTCACGTGGTGTT	0.502 kJ/mol
GGTAACACGTGTCGGT	0.0837 kJ/mol
TAGTTCACGTGGCGCT	0.879 kJ/mol

Sequence	relative binding free energy
TGTAACACGTGTGATC	0.837 kJ/mol
TAACTCACGTGGGTGT	0.46 kJ/mol
AATCGCACGTGAGGTG	0.46 kJ/mol
GAGGTCACGTGAATGT	1.38 kJ/mol
TGTAGCACGTGGATTT	-0.167 kJ/mol
AAGGGCACGTGTATAT	0 kJ/mol
AAGCTCACGTGTGTTT	1.26 kJ/mol
GGCATCACGTGGGGAG	0.293 kJ/mol
GGGTCCACGTGTGTGC	0.418 kJ/mol
TTACGCACGTGTGATT	-0.795 kJ/mol
GTTTGCACGTGTGTTC	0.544 kJ/mol
GAGGTCACGTGTTTAT	1.09 kJ/mol
GTTGGCACGTGGTTAC	0.0837 kJ/mol
TATATCACGTGGTTGG	0.418 kJ/mol
TTGTTCACGTGTATTG	1.21 kJ/mol
GTGGGCACGTGACAGT	-0.126 kJ/mol
GGGGGCACGTGGCCGT	-0.837 kJ/mol
GTTCACACGTGGTATG	0.167 kJ/mol
ATTTGCACGTGACTGT	0 kJ/mol
TGGTGCACGTGGTTTC	-0.0837 kJ/mol
GGAGTCACGTGTTTGG	1.13 kJ/mol
TATTACACGTGTGGCA	0.377 kJ/mol
TGTTACACGTGAAATG	0.628 kJ/mol
AAAGACACGTGCGTGG	-0.293 kJ/mol
TTGTGCACGTGTTCCG	-0.46 kJ/mol
AGTTACACGTGAGTAA	1 kJ/mol

Sequence	relative binding free energy
CGTTGCACGTGTACGG	0.335 kJ/mol
AGTGCCACGTGGCGTG	-0.92 kJ/mol
CTAGGCACGTGGGAGC	-0.669 kJ/mol
TTTTTCACGTGTTTTT	1.46 kJ/mol
TTAGGCACGTGGAGCA	-0.586 kJ/mol
CACGTCACGTGTTGTG	0 kJ/mol
TGGATCACGTGATGCG	0.962 kJ/mol
AAGGTCACGTGATTTA	0.711 kJ/mol
TGTAGCACGTGTGGCC	-0.126 kJ/mol
AGAGCCACGTGAGGTT	0.753 kJ/mol
GGCGTCACGTGAGTAG	1.21 kJ/mol
GATTTCACGTGATTCT	1.46 kJ/mol
ATTTTCACGTGTGATA	1.3 kJ/mol
AACAGCACGTGGTGTT	-0.502 kJ/mol
TCATTCACGTGTGGTG	0.837 kJ/mol
TTAAGCACGTGGGAGT	-0.795 kJ/mol
ATTTACACGTGAGTTA	1.21 kJ/mol
TGGATCACGTGTTTAT	0.669 kJ/mol
TGTGTCACGTGACGGG	0.669 kJ/mol
TTGTTCACGTGTCCGT	0.962 kJ/mol
CTGGTCACGTGGAGTC	0.544 kJ/mol
GGAACCACGTGTGGGT	0 kJ/mol
AGTGTCACGTGCTGGC	-0.418 kJ/mol
TGATTCACGTGTAGGG	1.55 kJ/mol
CAAGTCACGTGGTGGA	0.502 kJ/mol
CAAGGCACGTGAAGTT	0.586 kJ/mol

Sequence	relative binding free energy
GGTAACACGTGAATGT	1.76 kJ/mol
TTTTTCACGTGTTGGG	1.13 kJ/mol
TAGTACACGTGTGAGG	0.46 kJ/mol
TTCGGCACGTGGCATG	-0.92 kJ/mol
GTGCGCACGTGATGGC	0.251 kJ/mol
GGTAACACGTGGTGGT	-0.0418 kJ/mol
TGCGACACGTGGGAAT	-0.209 kJ/mol
TTAGGCACGTGTAAAT	0.377 kJ/mol
TGTTCCACGTGTATGT	-0.418 kJ/mol
TTGGCCACGTGGGGAT	-1.05 kJ/mol
GTAGACACGTGGAGGC	0 kJ/mol
ATGTGCACGTGGAGTG	-0.544 kJ/mol
TTTTCCACGTGGAAGG	0.711 kJ/mol
AATGGCACGTGGGGAT	-0.795 kJ/mol
TTCTACACGTGGTTGG	0.126 kJ/mol
ATAGACACGTGGCGGT	-1.05 kJ/mol
TTCTTCACGTGCGTAT	1.59 kJ/mol
TTTGACACGTGATAAG	0.795 kJ/mol
TGGTTCACGTGTAGTA	1.09 kJ/mol
CTGTTCACGTGAGGGT	1.3 kJ/mol
ATATTCACGTGTAATA	0.586 kJ/mol
GGAGTCACGTGACGTG	0.92 kJ/mol
TCTGGCACGTGCGGAT	-0.544 kJ/mol
GTTTGCACGTGGACTT	-0.293 kJ/mol
TAGTACACGTGGCGTT	0.0837 kJ/mol
GGATTCACGTGTAGTG	1.26 kJ/mol

Sequence	relative binding free energy
GTTACCACGTGGTGTA	0.0418 kJ/mol
CTGAACACGTGAGTGT	1.05 kJ/mol
GGGGACACGTGTAATA	0.544 kJ/mol
AGGACCACGTGGTTTG	-0.293 kJ/mol
AGTAACACGTGAGTTG	0.795 kJ/mol
TTAAACACGTGATGTC	1 kJ/mol
TTGAACACGTGTTGGC	0.837 kJ/mol
AATGGCACGTGACGGT	0.0418 kJ/mol
AAGGGCACGTGTTGTT	-0.0837 kJ/mol
CTTTTCACGTGTGTTT	1.38 kJ/mol
GCAGTCACGTGGGGGC	0 kJ/mol
GGAGGCACGTGCGGAT	-0.377 kJ/mol
TTGCGCACGTGTATGA	-0.753 kJ/mol
GTAAGCACGTGATTTA	0.126 kJ/mol
TACTTCACGTGTTTGA	0.711 kJ/mol
TATAGCACGTGTGAGG	0.377 kJ/mol
GTAGACACGTGTTGTA	0.0418 kJ/mol
TTCATCACGTGCGGGC	0.837 kJ/mol
GGGCACACGTGGGGTC	0 kJ/mol
TTGGACACGTGTGAAA	0.711 kJ/mol
TTTTACACGTGTAGTT	0.879 kJ/mol
GGTTTCACGTGGGAAG	1.63 kJ/mol
ATTTACACGTGTAAAG	0.586 kJ/mol
ACGAGCACGTGTTGTG	-0.126 kJ/mol
GTAAACACGTGGGGGC	-0.126 kJ/mol
GTTATCACGTGTTGTT	1.05 kJ/mol

Sequence	relative binding free energy
TTGCGCACGTGGGTGC	-1.21 kJ/mol
GTGTACACGTGTAGGG	0.377 kJ/mol
ATAGTCACGTGATAGT	0.753 kJ/mol
AGTATCACGTGATTAA	1 kJ/mol
TTGTGCACGTGGATCA	-0.628 kJ/mol
TTCAGCACGTGGTGAT	-0.502 kJ/mol
AAGCACACGTGTGGGT	0.209 kJ/mol
TTTTACACGTGATGCT	0.669 kJ/mol
CGGGGCACGTGTGATA	-0.46 kJ/mol
GACGGCACGTGGAAGG	0.377 kJ/mol
GTTTACACGTGCTTTT	0.293 kJ/mol
CAGTGCACGTGTGCAG	0.167 kJ/mol
AGATTCACGTGGCTGG	0.586 kJ/mol
GTGTTCACGTGAGAGT	1.42 kJ/mol
AGATTCACGTGTTAAG	0.962 kJ/mol
TGGTACACGTGGTATG	-0.586 kJ/mol
GACTTCACGTGGGAGG	0.711 kJ/mol
TAGTCCACGTGGTTAG	-0.126 kJ/mol
ATTTGCACGTGTGGGA	0.251 kJ/mol
AAATGCACGTGGAGTA	0.126 kJ/mol
ATGGGCACGTGGAAAG	0.0418 kJ/mol
TCTGACACGTGTAAGT	0.669 kJ/mol
